# Data from PubChem BioAssay (NCATS).
# Several values for one entry are separate records, joined by “and”; a condition that tells them apart may be missing. Identical values can stand only once. The list shows a part of the results. The main result of the screen is listed elsewhere. These columns were measured beside it and carry no call. For some assays here: Most of these compounds were active or inconclusive in the main read-out, so they are no random draw. For some assays here: The note in brackets gives the kind of curve behind each potency; many fits are weak.
# Tests used:
# [1] = qHTS Assay for Lipid Storage Modulators (AID 1519); conditions: Drosophila S3 cells, BODIPY lipid droplet/cell ratio, laser cytometry, cells loaded with oleic acid
# In short: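 Cells seeded at 5,000 per well were treated with compounds over a concentration series and loaded with oleic acid (400 uM, as added). Lipid droplet fluorescence (488 nm excitation, 500-530 nm channel) was read by laser-scanning cytometry and normalized to 20 uM Triacsin C.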
# [2] = qHTS Assay for Modulators of Human Peripheral Myelin Protein 22 (PMP22) Expression/Activity (AID 1967); conditions: Cell-based PMP22 reporter, dual-color luciferase ratio
# In short: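 MSC80 mouse Schwann cells stably carrying Pmp22 promoter–green click beetle luciferase plus EF-alpha–red luciferase control were dosed for 24h at 37 °C. Dual-colour luminescence was filter-overlap corrected; %Activity came from green/red ratio versus untreated cells.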
# [3] = qHTS Validation Assay to Find Inhibitors of Chronic Active B-Cell Receptor Signaling (AID 485345); conditions: ABC-DLBCL cells, chronic BCR signaling reporter; measured here: CBG/CBR ratio read-out
# In short: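 TMD8 ABC-DLBCL cells stably carrying doxycycline-inducible IkappaBalpha–green luciferase fusion plus unfused red luciferase; compounds 46 uM to 3 nM, 4 h at 37C with doxycycline. Corrected green/red luminescence ratio normalized to 10 uM MG-132 and basal cell wells; curves fitted.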
# [4] = qHTS assay for small molecule antagonists of androgen receptor signaling (AID 588516); conditions: AR-UAS-bla HEK293, beta-lactamase ratio, antagonist mode, 16 h; measured here: W460 blue channel fit
# In short: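 Antagonist mode: inhibition of R1881-stimulated (10 nM final) bla reporter in GeneBLAzer AR HEK 293 cells, 16 h at 37C, compounds titrated. IC50 and efficacy from Hill-equation fits of 405/460–530 nm FRET ratios.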
# [5] = qHTS assay for small molecule antagonists of peroxisome proliferator-activated receptor delta signaling (AID 588535); conditions: HEK293T PPARd-UAS-bla, beta-lactamase FRET ratio, 18 h; 460 nm channel;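 note: cells co-treated with a PPAR-delta agonist as stimulator during compound exposure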
# In short: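 Cells were seeded at 4000 per well in assay medium containing 2% charcoal/dextran FBS and held 5 hrs at 37 C. Compounds were then added for 18 hrs. CCF4 substrate was applied for 2 hrs at room temperature before fluorescence reading.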
# [6] = qHTS assay for small molecule antagonists of vitamin D receptor signaling (AID 588541); conditions: HEK293T VDR-UAS-bla, beta-lactamase ratio, antagonist mode; measured here: W460 blue channel (cell viability)
# [7] = qHTS assay for small molecule agonists of retinoid X receptor alpha signaling (AID 588544); conditions: HEK293T RXRa-UAS-bla, beta-lactamase reporter, 18 h; 530 nm emission
# [8] = qHTS assay for small molecule antagonists of retinoid X receptor alpha signaling (AID 588546); conditions: HEK293T RXRa-UAS-bla, beta-lactamase ratio, antagonist mode; measured here: W530 green channel, cytotoxicity proxy;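 note: cells stimulated with 9-cis-retinoic acid as agonist; % is set by controls: 0 for no effect and ±100 for the full control effect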
# In short: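 Beta-lactamase reporter inhibition, read as CCF4 fluorescence ratio (ex 405, em 460/530 nm) after 2 h at RT. HEK293T UAS-bla cells, 2500/well, were stimulated with 9-cis-RA at 500 or 100 nM final alongside test compound for 18 h at 37 C.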
# [9] = A High-Content qHTS Against Drug Library for the Identification of Small Molecules that Inhibit DYT1 Early Onset Primary Dystonia-Associated Cell Pathology (AID 1645839); conditions: HEK293 Flp-In EGFP-delE TorsinA, punctate imaging, 48 h; measured here: cell count cytotoxicity
# In short: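 Flp-In T-REx 293 cells with tetracycline-inducible EGFP-delE hTOR1A (WT EGFP-hTOR1A as reference), 800 cells/well; compound added with tetracycline, 48 h at 37 C. Fixed, permeabilized cells imaged; %pathology (punctate TorsinA) primary, cell count counterscreen.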
# [10] = NCATS anti-infectives library activity on the primary C. elegans qHTS viability assay (AID 1745855); conditions: C. elegans worm area imaging, day 7; measured here: worm number, day 3
# In short: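 Viability is taken from GFP fluorescence of PE254-GFP-FLuc C. elegans imaged by laser cytometry over 7 days. Ten L1 worms per well grow at 21 °C on TOP10 E. coli capsules with titrated compound; levamisole marks toxicity.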
# [11] = qHTS for identification of novel therapeutic agents for treatment of microphthalmiaassociated transcription factor (MiT) renal cell carcinoma (RCC) (AID 1963991); conditions: CellTiter-Glo, 48 h; for z-score: stronger effect = lower value
# In short: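 Three TFE3-fusion RCC lines (UOK109, UOK124, UOK145), 500 cells/well in complete medium, were treated with MIPE 4.0 compounds for 48 hours at 37 C. Viability was by CellTiter-Glo luminescence, normalized to DMSO (100%) and empty wells (0%); curves fitted over 11 concentrations.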
# [12] = S16 Schwann cell PMP22 intronic element beta-lactamase assay (AID 624044); conditions: S16 rat Schwann cells, PMP22 element beta-lactamase FRET, 24 h; measured here: 460 nm blue channel; note: nearly all actives have a fitted effect of over 15% in size
# In short: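 Rat S16 Schwann cells with beta-Lac driven by a PMP22 intronic element, compound-treated 24 h at 37 °C. LiveBLAzer FRET B/G read: 460 nm normalized to potassium clavulanate vs DMSO; 535 nm FRET as viability; concentration-effect curves classified.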
# [13] = qHTS drug screen for cell cycle checkpoint inhibitors in PARPi-resistant BRCA-mutant ovarian cancer cell lines. (AID 1963452); conditions: PEO1/OlaR viability, CellTiter-Glo luminescence, 96 h
# In short: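 PEO1, PEO4 and PEO1/OlaR ovarian cancer cells, 600 per well, exposed 96 h at 37C to a dilution series. Viability read by CellTiter-Glo luminescence, normalized to DMSO and empty wells; activity summarized as Z-AUC.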
# [14] = measured here: cell count channel max response
# [15] = measured here: lipid (BODIPY) channel AC50
# [16] = measured here: lipid channel max response
# [17] = TFE3-RCC UOK109 viability, measured here: UOK109 Z-AUC
# [18] = TFE3-RCC viability, measured here: UOK124 Z-AUC
# [19] = TFE3-RCC viability, measured here: UOK145 Z-AUC
# Tags give direction and shape of the fitted curve.
smiles,measurement,setting,value
Nc1nc(N)c2nc(-c3ccccc3)c(N)nc2n1,max response,[1]; [14],18.4%
same,AC50,[1]; [15],"20 µM [rising, partial curve, poor fit]"
same,max response,[1]; [16],32.2%
same,AC50,"[2]; measured here: green reporter channel AC50, mouse Pmp22 promoter in mouse Schwann cells","84.9 µM [falling, single point]"
same,AC50,"[2]; measured here: red reporter channel AC50, EF-alpha promoter control reporter in MSC80 mouse Schwann cells","30.1 µM [falling, partial curve, poor fit]"
same,AC50,[3],"11.6 µM [falling, partial curve]"
same,AC50,[4],"44.7 µM [rising, partial curve] and 28.2 µM [rising, partial curve]"
same,max response,[5],991% and 512%
same,AC50,[6],"31.6 µM [rising, partial curve] and 35.5 µM [rising, partial curve]"
same,max response,[7],81.1% and 36.5%
same,max response,[8],56.1% and 52.3%
same,AC50,[9],"1.26 µM [rising, partial curve, poor fit]"
same,AC50,[10],"25.8 µM [falling, single point]"
O=C1C(CCC(O)c2ccc(F)cc2)C(c2ccc(O)cc2)N1c1ccc(F)cc1 (stereo unspecified),max response,[1]; [14],25.2%
same,AC50,[1]; [15],"22.4 µM [rising, single point]"
same,max response,[1]; [16],44.1%
same,z-score,[11]; [17],0.324
same,z-score,[11]; [18],0.791
same,z-score,[11]; [19],0.427
O=C1CC(c2ccccc2)Oc2ccccc21 (stereo unspecified),max response,[1]; [14],26.9%
same,AC50,[1]; [15],"0.282 µM [rising, partial curve, poor fit]"
same,max response,[1]; [16],39.2%
same,AC50,[10],"23 µM [falling, single point]"
O=c1[nH]c(=O)n([C@H]2C[C@H](O)[C@@H](CO)O2)cc1F,max response,[1]; [14],35.4%
same,AC50,[1]; measured here: cell number channel AC50,"0.0224 µM [falling, full curve, poor fit]"
same,max response,[1]; [16],49.7%
same,AC50,[12],"0.00891 µM [falling, full curve]"
same,AC50,[13]; measured here: PEO1 parental viability,"0.275 µM [falling, full curve]"
same,AC50,[13]; measured here: PEO4 viability,"0.155 µM [falling, full curve]"
O=C(O)C1CCCN(CCC=C(c2ccccc2)c2ccccc2)C1 (stereo unspecified),max response,[1]; [14],48%
same,AC50,[1]; [15],"50.1 µM [rising, partial curve, poor fit]"
same,max response,[1]; [16],49.2%
same,z-score,[11]; [17],0.917
same,z-score,[11]; [18],0.51
same,z-score,[11]; [19],0.614
same,AC50,"[11]; TFE3-RCC viability, measured here: UOK145 cell viability","29.6 µM [falling, single point]"
CCCCCCc1ccc(O)cc1O,max response,[1]; [14],-28.6%
same,AC50,[1]; [15],"39.8 µM [falling, single point]"
same,max response,[1]; [16],-36.9%
same,AC50,[4],"39.8 µM [falling, single point]"
same,AC50,[9],"7.94 µM [falling, partial curve, poor fit]"
